Source: US20130317027A1, “COMPOUNDS AND THERAPEUTIC USES THEREOF” (Myrexis, Inc, priority 2010, published 2013)
The source gives many values for each of these; only a part stands here.

System: cell lines (cancer, normal and primary cells)
Test: NA Rescue assay (cytotoxicity with nicotinic acid added)
Type: cell-based
Protocol: Cell lines were treated with a fixed dose of Exemplary Compound A and screened for NA rescue and Naprt1 expression by immunoblotting and quantitative RT-PCR (Table 7). […] The 176 cell lines included 5 normal (non-cancerous) cells and 3 primary cells (italicized in the table), all of which rescued. Naprt1 was quantified by western blotting and q-RT-PCR in 164 and 123 of the 176 cell lines, respectively. […] A statistically significant (p value <0.0001) correlation existed between NA rescue phenotype and Naprt1 protein or mRNA expression levels.
Additional cancer cell lines were treated with Exemplary Compounds A, C, D, E, F, G and H (identified below) (Table 8). The NA rescue phenotype of a particular cancer cell line was maintained for all Nampt inhibitors tested.

Compound: O=C(NCc1cccnc1)Nc1ccc(COc2ccccc2-c2ccccc2)cc1 [Exemplary Compound A]
- NA rescue (A172 cells, glioma): no
- NA rescue (A2058 cells, melanoma (lymph node metastasis), fixed dose): yes
- NA rescue (AMO-1 cells, myeloma, fixed dose): no
- NA rescue (CCF-STTG1 cells, brain, astrocytoma, fixed dose): yes
- NA rescue (COLO320DM cells, colorectal, fixed dose): no
- NA rescue (COLO320HSR cells, colorectal, fixed dose): no
- NA rescue (COLO-205 cells, colorectal): yes
- NA rescue (DB cells, DLBCL (NHL)): partial
- NA rescue (DLD-1 cells, colorectal, fixed dose): yes
- NA rescue (DMS-114 cells, SCLC): yes
- NA rescue (HCC827 cells, NSCLC): no
- NA rescue (HCC1937 cells, breast, fixed dose): yes
- NA rescue (HCC2998 cells, colorectal, fixed dose): yes
- NA rescue (HCT-8 cells, colorectal, fixed dose): yes
- NA rescue (HCT-15 cells, colorectal, fixed dose): yes
- NA rescue (HCT-116 cells, colorectal): yes
- NA rescue (HL-60 cells, myelogenous leukemia, fixed dose): yes
- NA rescue (HT29 cells, colorectal): yes
- NA rescue (HT-1080 cells, fibrosarcoma): no
- NA rescue (Hepa1-6 cells, mouse, hepatoma, fixed dose): partial
- NA rescue (Hs93.T cells, fibrosarcoma, fixed dose): yes
- NA rescue (Hs414.T cells, fibrosarcoma, fixed dose): yes
- NA rescue (K562 cells, myelogenous leukemia (CML), fixed dose): yes
- NA rescue (K562 cells, myelogenous leukemia, fixed dose): yes
- NA rescue (KINGS-1 cells, brain, anaplastic astrocytoma (glioma), fixed dose): no
- NA rescue (KM12 cells, colorectal, fixed dose): yes
- NA rescue (KMS-11 cells, myeloma, fixed dose): yes
- NA rescue (KU812 cells, myelogenous leukemia, fixed dose): no
- NA rescue (LS174T cells, colorectal, fixed dose): yes
- NA rescue (MALME-3M cells, melanoma (lung metastasis), fixed dose): yes
- NA rescue (MC/CAR cells, myeloma, fixed dose): yes
- NA rescue (MCF7 cells, breast, fixed dose): yes
- NA rescue (MDA-MB-231 cells, breast, fixed dose): yes
- NA rescue (MDA-MB-436 cells, breast, fixed dose): yes
- NA rescue (MEG-01 cells, myelogenous leukemia (CML), fixed dose): yes
- NA rescue (MLE-12 cells, mouse, lung, fixed dose): no
- NA rescue (MOLM-13 cells, myelogenous leukemia, fixed dose): yes
- NA rescue (MV-4-11 cells, myelogenous leukemia, fixed dose): yes
- NA rescue (MiaPaCa2 cells, pancreatic): no
- NA rescue (NB-4 cells, myelogenous leukemia, fixed dose): yes
- NA rescue (NCI-H82 cells, SCLC): yes
- NA rescue (NCI-H460 cells, NSCLC): no
- NA rescue (NCI-H522 cells, NSCLC): no
- NA rescue (NCI-H929 cells, multiple myeloma): no
- NA rescue (NCI-H1650 cells, NSCLC): no
- NA rescue (NCI-H2030 cells, lung (NSCLC), fixed dose): yes
- NA rescue (NCI-H2110 cells, lung (NSCLC), fixed dose): yes
- NA rescue (NCI-H2228 cells, lung (NSCLC), fixed dose): yes
- NA rescue (NCI-N87 cells, gastric): yes
- NA rescue (NIH-3T3 cells, mouse, fibroblast, fixed dose): no
- NA rescue (NOMO-1 cells, myelogenous leukemia, fixed dose): partial
- NA rescue (OCI-Ly19 cells, DLBCL (NHL)): yes
- NA rescue (OPM-2 cells, multiple myeloma): no
- NA rescue (OVCAR-8 cells, ovarian): yes
- NA rescue (RAW264.7 cells, mouse, leukemia, fixed dose): no
- NA rescue (RKO cells, colorectal, fixed dose): yes
- NA rescue (SF-295 cells, glioma): no
- NA rescue (SK-BR-3 cells, breast, fixed dose): yes
- NA rescue (SK-CO-1 cells, colorectal, fixed dose): yes
- NA rescue (SKM-1 cells, myelogenous leukemia, fixed dose): partial
- NA rescue (SNB-75 cells, brain, astrocytoma, fixed dose): yes
- NA rescue (SNU-C2B cells, colorectal, fixed dose): yes
- NA rescue (SR cells, lymphoma, fixed dose): partial
- NA rescue (SU-DHL-4 cells, DLBCL (NHL)): partial
- NA rescue (SU-DHL-5 cells, DLBCL (NHL)): no
- NA rescue (SU-DHL-8 cells, lymphoma, fixed dose): partial
- NA rescue (SUP-M2 cells, lymphoma, fixed dose): partial
- NA rescue (SW480 cells, colorectal, fixed dose): yes
- NA rescue (SW620 cells, colorectal, fixed dose): yes
- NA rescue (SW684 cells, fibrosarcoma, fixed dose): yes
- NA rescue (SW872 cells, fibrosarcoma, fixed dose): yes
- NA rescue (SW-48 cells, colorectal, fixed dose): yes
- NA rescue (U266 cells, myeloma, fixed dose): no
- NA rescue (U-87MG cells, glioma): no
- NA rescue (UACC-257 cells, melanoma, fixed dose): yes
